This is one part of the list.

To fix the notation:
T1: UNK ZnF1-3 (human, UniProt Q9C0B0 31-174)
T1 sequence: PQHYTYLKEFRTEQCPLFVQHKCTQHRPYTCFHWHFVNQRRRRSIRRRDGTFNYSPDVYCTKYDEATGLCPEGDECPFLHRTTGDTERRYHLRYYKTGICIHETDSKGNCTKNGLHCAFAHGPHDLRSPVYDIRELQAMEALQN

B1: chr6:17872010:17872011:+_ENSMUSG00000029534_ENSMUST00000127322|mus_hu|motif|central (ssRNA)
RNA: GGGAGUUCUACAGUCCGACGAUCUUCACUGUCUCCUCUCUUCAGGAUAUGUUCUGGGGGUAGGAUUAAGCUUUUCAUUUCGGGUAGGUAUUUUGGCACAUGAGGAUUGAAUUCCACAGCUCUAUGAAUGGCCUCUACUGCAUUCAACAGAGGAUUGAGCAUCA
B2: chr16:2814425:2814426:+_ENSG00000167978_ENST00000301740|hu_hu|FALSE|FALSE (ssRNA)
RNA: GGGAGUUCUACAGUCCGACGAUCAGACAGUUCUUUAUGUUCUGGAGAAAAAUGUGGCCCACCCCAAGAUGAGGCCAUUGAAGGGACUUCUACUGCUUCCAAAGAAGCCUGUGACUGGCUCUGAUCAAGAGUCAAAGACACAGCCAACAGAGGAUUGAGCAUCA
B3: 72387030_72387403_312_3pUTR_ENSMUSG00000053907_ENSMUST00000059472|mouse|control|control (ssRNA)
RNA: GGGAGUUCUACAGUCCGACGAUCGAACCACUUUCUGGUAAUCAAUGGCAGCUCUGGAUGUAAUUUCCCCAGCAAGAAGAAUCAUUCCAGUUUUAGCAACAGUUUCACAAGCCACUUUAGCAUCAGGGUCUUGUUGAAGGUGUGCAACAGAGGAUUGAGCAUCA
B4: chr1:93301758:93301759:+_ENSG00000122406_ENST00000370321|hu_hu|motif|central (ssRNA)
RNA: GGGAGUUCUACAGUCCGACGAUCGUAUUCAUCACCAGUCACCUCCACUUGGCCUUCAUAGAUCUUGUCCAUGCCAAACCGGUUGAGAAGCCUGCGGGCCAGCAGCAGGCCAGUACAAUAUGCUGCAGCAUAAUUUGUCAGGCCCAACAGAGGAUUGAGCAUCA
B5: chr15:103030146:103030147:-_ENSMUSG00000009575_ENSMUST00000118152|mus_mus|motif|central (ssRNA)
RNA: GGGAGUUCUACAGUCCGACGAUCUUUGUUUUCCGCAUCCUCUGGAUAUGCGUGCCACGUCAGUCUCUCUUCAUAAAAUGCGGUCACAAUCUGUGGACACUUCACGUUAGCUUCUUUUGCAAGAACCAGGUCAGCUUCAUCUGUCAACAGAGGAUUGAGCAUCA
B6: 131862834_131862954_378_5pUTR_ENSG00000115762_ENST00000234115|human|control|control (ssRNA)
RNA: GGGAGUUCUACAGUCCGACGAUCGAACACCAAGACGCCACGGCGAUUCCUCGCCUGCUCGCCUGCAACUGCCGCACGUCCGGCGUCCUGGCCGCCGUUCUGACGUCACGCCUCGGCGCGCAUGCGCGGCGGGCCCCGGCCGGUCAACAGAGGAUUGAGCAUCA
B7: chr8:95500983:95500984:-_ENSG00000164944_ENST00000437199|hu_mus|motif|central (ssRNA)
RNA: GGGAGUUCUACAGUCCGACGAUCAGAACACAUCUAUCGAGUAAAGGACCGUACAUGACGGCCUCUACCACUGCCUCCACGGACAAACUUUCCUCUCGAGCCUCCACUGCCGCUAUUUGUACUAGCCCAGGACGGUCCCAGGCCCAACAGAGGAUUGAGCAUCA
B8: chr5:132412388:132412389:+_ENSG00000170606_ENST00000304858|hu_hu|FALSE|FALSE (ssRNA)
RNA: GGGAGUUCUACAGUCCGACGAUCUUUGGACUUAAUGUCUAGCUUGUAUUUCUUCCCAAAUUCUUCACAGAAGUGAUUUACUAACACUUCAUCAAAUUUUCUACCUCCCAAUGUCGUGUCAAAUGCAGUGGCCAGAACUUUCAGCAACAGAGGAUUGAGCAUCA
B9: chr3:196555327:196555328:+_ENSG00000180370_ENST00000327134|hu_hu|motif|central (ssRNA)
RNA: GGGAGUUCUACAGUCCGACGAUCUUCAGGUUAUGCAGACCAUUUCUUUAAACCCCAAAAAGAGUAAUAAUUUUCAUAUACGGAAAGGCUUCUUGUAGAAAAUGGAAAAAAGAGUAUGAGGCCACAGCAGUGAUGUUAACGGUUCAACAGAGGAUUGAGCAUCA
B10: chr2:61705769:61705770:-_ENSG00000082898_ENST00000401558|hu_hu|FALSE|FALSE (ssRNA)
RNA: GGGAGUUCUACAGUCCGACGAUCAAAUGGGCAUGAAGUAAAAUUUUUAAAAAUGCCUUAAUUUUCAACUUCAUGCAAACUAAAUAAAGAUGACCAAAACAAAAGCUUAAACAAUGGAAGGAUAUUUCACAGAAAAUUUCUUAUCAACAGAGGAUUGAGCAUCA
B11: chr3:10015032:10015033:+_ENSMUSG00000027533_ENSMUST00000029046|mus_mus|mus_mus_mus_hu_True|88_108 (ssRNA)
RNA: GGGAGUUCUACAGUCCGACGAUCGUUGUUGCCAUCACAAGUGAUGAUACAGUCUGGCUUGGCCAUUGCGCCCAUUUUUCGCAAAGCUAUUCCCACUCCUAGCUCCUUCAUGUAUUCAUCAAAGCCUUUGCUGUCCACCAGGCGCAACAGAGGAUUGAGCAUCA
B12: chr8:131229317:131229318:+_ENSMUSG00000025809_ENSMUST00000090006|mus_hu|FALSE|FALSE (ssRNA)
RNA: GGGAGUUCUACAGUCCGACGAUCUGAGCAAACACACAGCAAACUGAACUGAUCAGUCCAAUCCAGAAAAUUGGUUGUAAAUUCAUCUUUUCCGCGCGGCGUCCGGGGCCCGGCGCGGUGGGCUCGGGCCUGCUGUUCCGCGACCAACAGAGGAUUGAGCAUCA
B13: chr8:117878989:117878990:-_ENSG00000164754_ENST00000297338|hu_hu|hu_hu_hu_mus_True|38_98 (ssRNA)
RNA: GGGAGUUCUACAGUCCGACGAUCCCAGAGGCCCUCGUUUACUGAGAACAAAAUGUGCGUAGAACAUUUUUCUUAUUUGCUAUGAAAUAAGAAGAAAACCUUGCUCUGGCGGGGAGCCGGGAGGGGUGGGUGGCCCGGGGAGGGCAACAGAGGAUUGAGCAUCA
B14: 122055103_122057333_1646_CDS_ENSMUSG00000031835_ENSMUST00000081381|mouse|control|control (ssRNA)
RNA: GGGAGUUCUACAGUCCGACGAUCUACUGUGCUUACUAACAAGGUGACGGCCCCAGCGACCACUGGGGAAGCGACACUGGUCCCUGAGAGUGCACGGCAGCCCCCUUUCACACCGGAACCCCGCACUCCAGCACCAUAGGUGACCAACAGAGGAUUGAGCAUCA

This assay has as its target T1, UNK ZnF1-3. Put plainly: nsRBNS (natural sequence RNA bind-n-seq); RBNS binding buffer (assumed for nsRBNS): 25 mM Tris pH 7.5, 150 mM KCl, 3 mM MgCl2, 0.01% Triton X-100, 500 ug/ml BSA, 20 U/ml SUPERase-In, 4 C; UNK is unkempt and MSI1 is Musashi-1; names of the RNAs are library labels; protein concentration not given here; high values mean tight binding.
Molecule B1 registered a binding signal of 1.03 enrichment R.

As for B2, the binding signal was found to be 0.872 enrichment R.

Take B3: the binding signal was determined as 1.64 enrichment R.

In turn, B4 displayed a binding signal of 1.14 enrichment R.

Molecule B5 displayed a binding signal of 0.635 enrichment R.

In turn, B6 returned a binding signal of 0.625 enrichment R.

In turn, B7 returned a binding signal of 1.05 enrichment R.

In the case of B8, the binding signal amounted to 1.1 enrichment R.

Molecule B9 registered a binding signal of 1.58 enrichment R.

As to B10, the binding signal was 1.75 enrichment R.

Take B11: the binding signal came to 0.832 enrichment R.

Molecule B12 came in with a binding signal of 0.843 enrichment R.

Molecule B13 displayed a binding signal of 1.78 enrichment R.

Take B14: the binding signal came out at 1.01 enrichment R.
